Laboratory results reported in ChEMBL document CHEMBL4888484, “Replenishing the malaria drug discovery pipeline: Screening and hit evaluation of the MMV Hit Generation Library 1 (HGL1) against asexual blood stage Plasmodium falciparum ,using a nano luciferase reporter read-out” (2022).
About 540 (0.36%) of roughly 150,000 compounds showed an effect of 50% or more. This is one part of the list.

Tested on: Plasmodium falciparum
Assay: Primary screen in NF54 nanoGlo assay, in single point, at 2uM, 72h; a lower Z score goes with more inhibition
Format: functional, Erythrocyte
Conditions: timepoint 72 hour

Structure (SMILES)	% Inhibition	Z score
O=C(C1COc2ccccc2O1)N1CCC(n2cnc3ccccc32)C1 (stereo not drawn)	2%	-0.27
CCOc1ccc(NC(=O)N2C[C@@H]3CCC[C@H](C2)C(=O)N3)cc1C(F)(F)F	-11%	1.05
CCC(=O)Nc1ccc2c(c1)cc(C(=O)N1CCN(CC)CC1)n2Cc1cccc(F)c1	-9%	1.1
O=C(CN1CCN(c2c(F)c(F)c(F)c(F)c2F)CC1)N1CCNC1=O	29%	-3.25
CCN(CC)C(=O)c1ccccc1NC(=O)c1cc(C)c2c(c1)-c1ccccc1S(=O)(=O)N2C	-1%	0.12
CS(=O)(=O)N1CCC(C(=O)N2CCN(c3nccn4nc5c(c34)CCCC5)CC2)CC1	-14%	1.82
COC(C)(C)[C@]12CC(O)(c3ccccc3)ON1[C@H]1CCCCC1N2O (stereo partly drawn)	-12%	1.53
C[C@H]1COCCN1Cc1csc(-c2ccco2)n1	-2%	0.34
CCN(CC(=O)O)C(=O)C1CCCCCC1	1%	-0.11
C[C@@H](C(=O)N1CCCc2ccccc21)S(=O)(=O)Cc1nc(Cc2ccccc2)no1	0%	-0.03
CCc1ccc(S(=O)(=O)N2CCC(n3nccn3)CC2)s1	-10%	1.14
COc1cccc(CC(=O)N2C[C@H](c3nc(-c4cccnc4)no3)[C@@H](C)C2)c1	-2%	0.26
O=C(c1ccc(F)c(Cl)c1)N1C[C@@H](CN2CCCCCC2)[C@@H](CO)C1	-7%	1.11
CCc1noc(C)c1C(=O)N[C@@H](C)c1cnn(-c2ccc(OC)cc2)c1C	-24%	2.57
Cc1ccc(NC(=O)CN2CCC(CNC(=O)c3ccccn3)CC2)c(C)c1	-27%	2.66
CCOC(=O)N(C)C1CCN(Cc2ncc(C(C)C)o2)CC1	2%	-0.29
Cc1nc(-c2ccc(Cl)c(S(=O)(=O)N3CCC(C(=O)NC4CCCCCC4)CC3)c2)no1	-8%	1.02
CS(=O)(=O)C1(c2noc([C@@H]3CCc4ccccc4O3)n2)CCCC1	1%	-0.09
O=C(O)C1CC[C@@H](c2ccccc2)N1C(=O)Cc1cccnc1 (stereo partly drawn)	-1%	0.15
CCOC(=O)[C@]12CCCN[C@@H]1CCN(C(=O)NCc1ccc(C)cc1)C2	1%	-0.19
CCc1ccc(S(=O)(=O)N2CCC(N3CCN(Cc4ccccc4)C(=O)C3=O)CC2)cc1	-9%	1.66

Structure (SMILES)	% Inhibition	Z score
O=C(c1cccnc1)N1CCOc2ccc(CN3CCCCCC3)cc2C1	-7%	0.7
O=C(Cn1nc(N2CCOCC2)c2ccccc2c1=O)Nc1ccc(Cl)cc1C(F)(F)F	-26%	3.94
N#Cc1c2c([nH]c(=O)c1C(=O)O)CCCCCC2	8%	-0.96
CO[C@H]1C[C@H]2CN(C(=O)c3ccncn3)[C@@H](Cc3ccccc3)C(=O)N2C1	-8%	1.25
CCO[C@H]1COC[C@@H]1NC(=O)c1cc(Cl)c(C)c(Cl)c1	-8%	0.99
Cc1ccccc1NC(=O)C1CCN(c2cc(N3CCCC3)ncn2)CC1	-3%	0.58
c1cnn(C2CN(CC3CCCC3)C2)c1	3%	-0.52
Cc1cnc(C(C)(C)NC(=O)N[C@@H](C)c2nccs2)s1	-6%	0.89
COc1cc(C(=O)OCc2nccn2C)ccc1F	31%	-3.46
COC(=O)[C@@H](NC(=O)c1ccccc1N1CCC(=O)NC1=O)c1ccccc1	-14%	1.82
Cc1[nH]c2ccc(CNc3cc(C(=O)N4CCCCC4)ccn3)cc2c1C	-18%	1.78
C[C@@H](CNC(=O)N(C)C1CC[S+]([O-])CC1)c1ccc(F)cc1F (stereo partly drawn)	2%	-0.24
Cn1ccnc1CCNC(=O)COC[C@H]1CCCCO1	1%	-0.17
O=C(NC1CN(Cc2ccccc2)CCC1CO)c1ccnnc1 (stereo not drawn)	-4%	0.61
O=C1CCCc2cc(-c3csc(N4CCCCC4)n3)ccc2N1	-7%	1.32
CC1=CCCC(C)C1CNc1[nH]ncc1C#N (stereo not drawn)	-7%	0.93
COC[C@H]1NC(=O)CC[C@H]1C(=O)Nc1ccc(N2CCOCC2)cc1	-1%	0.07
CN1CCC(NCC2(c3ccc(F)cc3Cl)CC2)CC1	-3%	0.38
CN(CC#N)CCC(=O)Nc1ccccc1	3%	-0.53
CCOc1ccc(NC(=O)Cc2c(C)nc(C)[nH]c2=O)cc1	-6%	1.19
Cc1cccc(OCC(=O)N[C@@H]2CN(c3ncccn3)C[C@H]2CO)c1	-7%	0.99

Structure (SMILES)	% Inhibition	Z score
NCCc1c(-c2cccnc2)[nH]c2ccccc12	-20%	2.36
O=C(Nc1ccccc1C(F)(F)F)NC(CO)(CO)C(F)(F)F	-4%	0.4
Cc1nc(NCC2CC3CCC2O3)nc(C)c1CC(C)C (stereo not drawn)	-6%	0.81
Cc1ccnc(NC(=O)Cc2csc(-c3ccoc3)n2)n1	-13%	1.13
O=C(c1ccn2c(-c3ccccc3)nnc2c1)N1CCN(c2ccccc2)CC1	-13%	1.5
O=C(Cn1nc2c(Cl)cccn2c1=O)N1CCC[C@H](C(F)(F)F)C1	-8%	1.05
Cc1ccc(N2C(=O)C3C4CC5C(OC2C53)C4O)cc1 (stereo not drawn)	-5%	0.77
Cc1cc(Nc2cccc(Cl)c2C)n2nc(-c3ccco3)nc2n1	-19%	2.25
C[C@](O)(CNC(=O)C(=O)Nc1cccc(C(F)(F)F)c1)c1cc2ccccc2o1	-12%	1.56
COc1ccccc1CNC(=O)c1nn[nH]c1Nc1ccccc1	-14%	1.56
Cc1nn(Cc2ncnn2CCCO)c(=O)c2ccccc12	3%	-0.43
O=c1[nH]cnc2ncc(-c3ccccc3)nc12	-41%	4.8
COc1ccc(F)c(CN2CCCO[C@@H](CN3CCOCC3)C2)c1	-11%	1.93
CC(NC(c1cccc(C(F)(F)F)c1)C1CC1)C(=O)N(C)C (stereo not drawn)	8%	-1.12
O=C(Nc1cc(F)cc(F)c1F)N1C[C@H]2CC[C@@H](C1)[C@H]2O	4%	-0.77
Cc1nc(NCc2cncn2CC(C)C)c(C(N)=O)cc1C(=O)O	-9%	1.24
COc1ccccc1CC(=O)NCc1cccnc1-n1ccnc1	3%	-0.47
Cc1nnc(N2CCN(C(=O)[C@@]34CCC[C@@H]3C4)CC2)c(C(N)=O)c1C	-2%	0.39
CC(=O)Nc1cc2c3c(c1)C1C=CCC1C(c1ccc(F)cc1)N3CC1CC=CC21 (stereo not drawn)	6%	-0.9
O=C(CNC1(c2nccs2)CCCC1)NCc1ccccn1	-15%	1.76
CC(C)c1noc(CN2CCN(C(=O)N(C)C)[C@H]3CS(=O)(=O)C[C@H]32)n1	-3%	0.42

Structure (SMILES)	% Inhibition	Z score
CNC(=O)c1noc2c1CN(C(=O)c1oc3cc(OC)ccc3c1C)CC2	-6%	1.21
Cc1cccc(N2CCN(C(=O)c3ccc(N4CCOc5ccc(Cl)cc54)s3)CC2)c1C	-2%	0.29
COCc1ccc(CN(C)C[C@]2(O)CCc3ccccc32)o1	-9%	1.16
Cc1cnc(NC(=O)[C@@H]2CC(c3ccccc3)=NO2)s1	-10%	1.57
Cc1nnc(CN(C)C(=O)Nc2ccc(C(C)(C)C(F)(F)F)cc2)s1	15%	-1.71
CNC(=O)c1ccc(N2CCCO[C@H](C(C)C)C2)nc1	-1%	0.2
CCC1(CC)CCN(C(=O)C[C@H]2CCOC2)C1	-11%	1.26
C=CCN1C[C@H](C)N(C(=O)C2CCN(C(=O)CC)CC2)C[C@@H]1C	-8%	1.72
CCc1nc(-c2csc(S(=O)(=O)N3CCC[C@H](C(=O)N4CCc5ccccc54)C3)c2)no1	-10%	1.14
O=C(O)[C@H]1C[C@@H](C(=O)NCc2cccnc2)CN(C/C=C/c2ccccc2)C1	-9%	1.73
O=S(=O)(N[C@@H](CO)c1ccc(F)cc1)N1CCCC1	10%	-1.32
CCOc1ccc(C(=O)N2CCC[C@@]3(CNC(=O)O3)C2)o1	7%	-0.92
O=C([C@H]1CCOC1)N1CCN(Cc2nnc3n2CCCCC3)CC1	28%	-3.81
Cc1c2c(nn1Cc1ccccc1)NC(=O)C[C@H]2/C=C/c1ccco1	-7%	1.19
Cc1cc(Cl)cc2c(=O)n(CC[C@H]3CCCN3C)cnc12	0%	-0.07
COc1cccc([C@H]2C[C@@H]2C(=O)NC(C)c2cn[nH]c2)c1 (stereo partly drawn)	-2%	0.22
Cn1ccc(CN2CCc3ccccc32)cc1=O	6%	-0.67
CN(CC1CCCCC1O)c1ncc(Br)cn1 (stereo not drawn)	-6%	1.02
COCCN(Cc1ccc2c(ccn2C)c1)CC1CC1	13%	-1.72
CCCCc1nc(C)sc1C(=O)NC1CCN(C(=O)c2cc3ccccc3[nH]2)CC1	-10%	1.18
CCOCC(C)(C)NC(=O)N[C@@H](CO)c1ccccc1	3%	-0.48
